The text below walks through data of the BET-seq Pho4 binding data (Le et al. 2018).

This is one part of the list. These are noisy estimates, calculated here from bound and input reads.

The target in the test is T1, Pho4 (S. cerevisiae) (UniProt P07270).
T1 sequence: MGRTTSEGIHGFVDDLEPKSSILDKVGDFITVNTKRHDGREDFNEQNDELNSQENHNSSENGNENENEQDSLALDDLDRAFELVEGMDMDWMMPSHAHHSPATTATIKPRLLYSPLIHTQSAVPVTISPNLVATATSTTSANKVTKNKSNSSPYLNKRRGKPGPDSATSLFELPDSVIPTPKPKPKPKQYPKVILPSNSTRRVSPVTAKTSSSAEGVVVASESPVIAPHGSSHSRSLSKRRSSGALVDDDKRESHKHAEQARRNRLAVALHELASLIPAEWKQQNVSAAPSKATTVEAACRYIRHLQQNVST
As to the kind of experiment: relative binding free energy (BET-seq); higher = weaker binding. As to conditions: reference: library average.
In the case of AAGGGCACGTGAATAT, the “relative binding free energy” value worked out at 0.13 kcal/mol.

Consider ATTGGCACGTGAAAAG, for which the “relative binding free energy” value was determined as 0.11 kcal/mol.

TGAGTCACGTGTTATT: the “relative binding free energy” value worked out at 0.08 kcal/mol.

TCGGGCACGTGTACTT: the “relative binding free energy” value was found to be 0.09 kcal/mol.

In the case of TTAAGCACGTGAATGG, the “relative binding free energy” value came to 0.18 kcal/mol. To TCTGGCACGTGTAGTG belongs 0.08 kcal/mol. With TTTCACACGTGGGTAT, the “relative binding free energy” value was found to be 0.02 kcal/mol.

Take TGTACCACGTGTGAGC: the “relative binding free energy” value was 0.23 kcal/mol. With CATTGCACGTGGTAGG, the “relative binding free energy” value was -0.2 kcal/mol.

Take GGATACACGTGGGGGA: the “relative binding free energy” value is 0 kcal/mol. The value for TTAGACACGTGGTATG was -0.21 kcal/mol. To CGTCGCACGTGGTGAG belongs -0.19 kcal/mol; to TGGTGCACGTGAGCTG, 0.27 kcal/mol. The value for TGTGCCACGTGTATGA was -0.05 kcal/mol; that for CGGGACACGTGGGAGG was -0.03 kcal/mol; that for ATTTGCACGTGGGCGC was -0.16 kcal/mol. As for GGAGTCACGTGGGCGG, the “relative binding free energy” value amounted to 0.01 kcal/mol.

As to AGTAGCACGTGGGGTA, the “relative binding free energy” value is -0.26 kcal/mol.

As for GTAGGCACGTGGGGGG, the “relative binding free energy” value was -0.16 kcal/mol. The value for GTCTGCACGTGTTGTT was 0.13 kcal/mol. To TATTTCACGTGGTCAA belongs 0.24 kcal/mol.

As to TGTGGCACGTGAGGTG, the “relative binding free energy” value came to 0.22 kcal/mol. To GGTTTCACGTGATCTG belongs 0.28 kcal/mol. The value for ATTGTCACGTGTACGG was 0.02 kcal/mol; that for AAGTACACGTGGAAGT was 0.29 kcal/mol; that for GTTATCACGTGTCGGA was 0.22 kcal/mol.

On to CGGTTCACGTGTTCTG, for which the “relative binding free energy” value was 0.26 kcal/mol. AGCGGCACGTGTTCGT: the “relative binding free energy” value was -0.02 kcal/mol. The value for GCTATCACGTGGTTTG was 0.13 kcal/mol. Turning to CGGGCCACGTGTGGTG, the “relative binding free energy” value turned out to be 0 kcal/mol. The value for GGGAGCACGTGGAGTG was -0.09 kcal/mol; that for GGCGGCACGTGACAGG was 0.02 kcal/mol. To GATCGCACGTGTTGTA belongs 0.04 kcal/mol; to TGGAGCACGTGTCGAT, -0.05 kcal/mol; to GAAGTCACGTGGGTAT, 0.15 kcal/mol. The value for GGAATCACGTGCTGGG was 0.25 kcal/mol; that for GATGCCACGTGTGTTT was 0.05 kcal/mol; that for AAGGGCACGTGGTTGG was -0.19 kcal/mol. As to GGGATCACGTGGTAGT, the “relative binding free energy” value came to 0.13 kcal/mol.

On to GCAAGCACGTGGGGGT, for which the “relative binding free energy” value is -0.23 kcal/mol. The value for TATGGCACGTGAGATT was 0.06 kcal/mol. To TGGACCACGTGATTGT belongs 0.18 kcal/mol; to TAGGTCACGTGAGTCT, 0.33 kcal/mol. The value for TTAAACACGTGAGGTA was 0.09 kcal/mol; that for GATGTCACGTGGTCTT was 0.19 kcal/mol. TTGTGCACGTGTGTCC: the “relative binding free energy” value is -0.06 kcal/mol. As for AATTACACGTGAAATT, the “relative binding free energy” value worked out at 0.46 kcal/mol. Turning to TGCATCACGTGTGTGA, the “relative binding free energy” value turned out to be 0.08 kcal/mol. As for AGTAGCACGTGTTCAG, the “relative binding free energy” value was -0.13 kcal/mol.

Turning to ATTGACACGTGGCGTA, the “relative binding free energy” value is -0.1 kcal/mol.

On to TGGGTCACGTGCGCTT, for which the “relative binding free energy” value is -0.06 kcal/mol. The value for TGATACACGTGCGTTA was -0.01 kcal/mol; that for TGTGACACGTGAGATG was 0.23 kcal/mol.

Turning to GGTGCCACGTGACTGG, the “relative binding free energy” value was 0.01 kcal/mol. To TCACTCACGTGGTGGT belongs 0.16 kcal/mol. The value for CGTCTCACGTGGGTTA was 0.07 kcal/mol; that for GTTTTCACGTGAAGCA was 0.53 kcal/mol. To GGTGTCACGTGACACG belongs 0.32 kcal/mol.

Turning to ATGTCCACGTGTGATT, the “relative binding free energy” value is 0.03 kcal/mol. To TGAGACACGTGTTTAA belongs 0.02 kcal/mol; to CGTGTCACGTGGGTTG, 0.03 kcal/mol; to CTCGGCACGTGGTCGG, -0.08 kcal/mol. To AGGGGCACGTGTTATT belongs 0 kcal/mol; to ATGTGCACGTGGTTTC, -0.15 kcal/mol. To CGGGTCACGTGGATGA belongs 0.06 kcal/mol; to TTTAGCACGTGGGGGG, -0.23 kcal/mol; to CTATTCACGTGGTCTG, 0.25 kcal/mol. Turning to TAATACACGTGGAGTG, the “relative binding free energy” value is -0.05 kcal/mol. For the sequence TCTGGCACGTGGACGG, the “relative binding free energy” value was -0.06 kcal/mol. The value for AGTATCACGTGGTTTC was 0.14 kcal/mol; that for ACTATCACGTGTGAGT was 0.24 kcal/mol; that for CTAGACACGTGTTGGT was 0.11 kcal/mol. As to ATTATCACGTGTTCAT, the “relative binding free energy” value came out at 0.05 kcal/mol.

On to GGGGGCACGTGGAGCA, for which the “relative binding free energy” value was -0.19 kcal/mol. To TCGGGCACGTGAGTGT belongs 0.19 kcal/mol; to GTGAGCACGTGTTCAG, -0.03 kcal/mol. The value for TTGTTCACGTGATAGG was 0.46 kcal/mol; that for AGGGACACGTGGCTAG was -0.04 kcal/mol. Take AGTGTCACGTGGAGTT: the “relative binding free energy” value was 0.08 kcal/mol. The value for CTAGACACGTGTTTTT was 0.09 kcal/mol; that for GATGCCACGTGAGTGT was 0.26 kcal/mol. The value for GCGGGCACGTGTTGTC was -0.01 kcal/mol; that for AGCAACACGTGTTGTG was -0.06 kcal/mol. To TGCGTCACGTGGGGAG belongs -0.04 kcal/mol; to TTGTACACGTGATAAA, 0.3 kcal/mol; to CTTTACACGTGTTCGG, 0.17 kcal/mol. As to ATTGGCACGTGCATGT, the “relative binding free energy” value is -0.2 kcal/mol. As for CATTTCACGTGGTTTG, the “relative binding free energy” value was 0.26 kcal/mol. In the case of CATTTCACGTGGCGTT, the “relative binding free energy” value stood at 0.25 kcal/mol. To AGAATCACGTGTCGGT belongs 0.07 kcal/mol. Consider TTGGACACGTGTTCTA, for which the “relative binding free energy” value was found to be 0.13 kcal/mol. To AAATACACGTGTATTG belongs 0 kcal/mol.

As to GTCGGCACGTGTCTGT, the “relative binding free energy” value is -0.01 kcal/mol.

As for GGTAACACGTGTATGG, the “relative binding free energy” value is 0.03 kcal/mol.

Consider AGAGGCACGTGATGAA, for which the “relative binding free energy” value is -0.07 kcal/mol. The value for ATTCTCACGTGTAGGA was 0.12 kcal/mol.

Take AGAGGCACGTGTGGTC: the “relative binding free energy” value is -0.02 kcal/mol.

On to CAGATCACGTGTGTTA, for which the “relative binding free energy” value stood at 0.28 kcal/mol. The value for ATATGCACGTGTTGAT was -0.11 kcal/mol. To TCTGGCACGTGGGTTT belongs -0.1 kcal/mol. To GTCTTCACGTGAGGTG belongs 0.47 kcal/mol.

For the sequence ATGTGCACGTGAGGTG, the “relative binding free energy” value is 0.19 kcal/mol. To TAGTTCACGTGGTCCG belongs 0.25 kcal/mol. To GTTTGCACGTGAACTT belongs 0.18 kcal/mol. Turning to GGAAGCACGTGGGGTA, the “relative binding free energy” value is -0.24 kcal/mol. To CGTGCCACGTGTGGAG belongs -0.1 kcal/mol. The value for TGATGCACGTGCGGGA was -0.04 kcal/mol; that for GGTGGCACGTGACGGT was 0.08 kcal/mol. To GTCGACACGTGCGGGT belongs -0.02 kcal/mol; to AATGGCACGTGTGTTC, -0.12 kcal/mol. TAGGACACGTGGCTGG: the “relative binding free energy” value was -0.01 kcal/mol. The value for TTGTCCACGTGTTTGC was 0.01 kcal/mol. In the case of TTGGACACGTGACGTA, the “relative binding free energy” value is 0.13 kcal/mol. The value for TTGAACACGTGGGTAG was -0.06 kcal/mol. To GAGGTCACGTGTAGTT belongs 0.13 kcal/mol.
